This is an account of results in PMC4336329 (PLoS ONE, 2015).

The campaign covered roughly 310,000 compounds. About 2,200 (0.71%) showed an effect of 50% or more. The effect is printed as a negative number. The list shows a part of the results.

The experiment deals with human ether-à-go-go-related gene (hERG) potassium channel (human, UniProt Q12809). In words: primary screen, population patch clamp on CHO cells stably expressing hERG.
Sequence of human ether-à-go-go-related gene (hERG) potassium channel (Q12809 whole entry, looked up): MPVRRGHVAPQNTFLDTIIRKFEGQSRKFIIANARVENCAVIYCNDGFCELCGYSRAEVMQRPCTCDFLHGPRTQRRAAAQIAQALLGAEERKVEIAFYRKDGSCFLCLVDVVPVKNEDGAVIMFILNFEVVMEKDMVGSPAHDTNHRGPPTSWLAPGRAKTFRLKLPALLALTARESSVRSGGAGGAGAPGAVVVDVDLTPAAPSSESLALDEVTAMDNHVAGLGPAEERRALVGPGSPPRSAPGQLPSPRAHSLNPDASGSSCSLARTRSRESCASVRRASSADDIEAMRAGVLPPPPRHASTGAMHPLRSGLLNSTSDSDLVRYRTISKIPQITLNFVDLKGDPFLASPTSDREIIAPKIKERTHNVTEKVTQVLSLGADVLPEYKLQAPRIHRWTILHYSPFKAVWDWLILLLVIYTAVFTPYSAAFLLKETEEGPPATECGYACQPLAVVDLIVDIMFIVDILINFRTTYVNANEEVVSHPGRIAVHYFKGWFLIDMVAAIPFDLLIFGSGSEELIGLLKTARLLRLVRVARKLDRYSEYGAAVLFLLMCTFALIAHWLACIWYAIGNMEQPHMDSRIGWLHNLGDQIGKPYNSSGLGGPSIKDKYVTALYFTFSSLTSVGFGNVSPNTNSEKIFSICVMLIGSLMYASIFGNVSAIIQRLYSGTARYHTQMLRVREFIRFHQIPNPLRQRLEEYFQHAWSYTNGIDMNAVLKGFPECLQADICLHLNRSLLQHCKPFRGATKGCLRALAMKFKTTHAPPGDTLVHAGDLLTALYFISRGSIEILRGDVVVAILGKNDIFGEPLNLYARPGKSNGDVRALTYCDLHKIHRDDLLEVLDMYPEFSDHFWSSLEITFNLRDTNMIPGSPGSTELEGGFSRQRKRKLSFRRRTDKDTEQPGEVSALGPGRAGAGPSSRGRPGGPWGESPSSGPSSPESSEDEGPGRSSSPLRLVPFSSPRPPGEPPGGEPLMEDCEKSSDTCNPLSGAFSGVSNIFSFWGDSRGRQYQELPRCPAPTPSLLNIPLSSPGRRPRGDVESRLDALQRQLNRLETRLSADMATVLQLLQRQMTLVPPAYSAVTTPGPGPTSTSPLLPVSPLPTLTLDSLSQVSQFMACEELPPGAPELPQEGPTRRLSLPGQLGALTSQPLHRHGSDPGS
On to `CCC(=O)c1ccc(OCC(O)CN(CCc2ccccc2)Cc2ccccc2)cc1.Cl` (stereo not drawn), for which the “hERG current change (%, negative = inhibition) at 1uM” value stood at 8.54%.

In the case of `CCOc1cc(C(=O)Nc2ccncc2)cc(OCC)c1OCC`, the “hERG current change (%, negative = inhibition) at 1uM” value is 11.3%. Consider `Cc1ccccc1NC(=O)c1ccc(F)c(S(=O)(=O)NCC2CCCO2)c1` (stereo not drawn), for which the “hERG current change (%, negative = inhibition) at 1uM” value came to 9.65%.

For the molecule `CC(=O)Nc1cccc(-c2csc(N)n2)c1`, the “hERG current change (%, negative = inhibition) at 1uM” value is given as 13.1%.

`CCOc1ccc(OCC(=O)N(C)c2c(N)n(Cc3ccccc3)c(=O)[nH]c2=O)cc1`: the “hERG current change (%, negative = inhibition) at 1uM” value turned out to be 8.23%. As to `CCOC(=O)Cc1csc(NC(=O)CSc2nnnn2-c2ccc(C)cc2C)n1`, the “hERG current change (%, negative = inhibition) at 1uM” value is 13.8%. Regarding `CCOC(=O)c1c(Cc2ccc(Cl)cc2)c[nH]c1C`, the “hERG current change (%, negative = inhibition) at 1uM” value amounted to 10.8%.

`COc1cc(/C=C(\C#N)C(=O)NCC2CCCO2)c([N+](=O)[O-])cc1OC` (stereo not drawn): the “hERG current change (%, negative = inhibition) at 1uM” value is 8.27%.

Regarding `CCOCC(=O)Nc1ccccc1C(=O)OCC`, the “hERG current change (%, negative = inhibition) at 1uM” value is reported as -3.16%. As to `COc1ccc(CCNC(=O)C2CC(c3ccc(C(F)(F)F)cc3)=NO2)cc1` (stereo not drawn), the “hERG current change (%, negative = inhibition) at 1uM” value is 2.01%. Next, `CCOC(=O)c1cc(C(O)(C(=O)OC)C(F)(F)F)c(/N=C/N(C)C)o1` (stereo not drawn): 3.28%; `CCOC(=O)C1(C)NC(c2ccc(N(C)C)cc2)C2C(=O)N(CC)C(=O)C21` (stereo not drawn): 11.8%; `CCOc1ccc(S(=O)(=O)N(CC)CC(=O)NC2CC2)cc1`: -7.06%. Take `COC(=O)C1=C(C(=O)OC)[C@@H]2N(C)c3ccccc3[C@@]23C[C@@H](C(=O)OC)N(C(=O)c2cccs2)C3=N1`: the “hERG current change (%, negative = inhibition) at 1uM” value was found to be 9.35%. For `COc1ccc(-c2cc(=O)c3c(OC)c(OC)c(OC)cc3o2)cc1`, the “hERG current change (%, negative = inhibition) at 1uM” value is given as 11.6%. Regarding `O=C(CC(=O)Nc1ccccn1)Nc1ccccn1`, the “hERG current change (%, negative = inhibition) at 1uM” value amounted to 10.9%. Next, `Cn1c(CCNC(=O)c2cc(COc3ccc(F)c(F)c3)on2)nc2ccccc21`: 3.16%; `C/C(=N\NC(=O)c1cccc([N+](=O)[O-])c1)c1cccc(NC(=O)C2CC2)c1`: 10%. Take `CCOC(=O)c1ccc(NC(=O)CCOc2ccccc2)cc1`: the “hERG current change (%, negative = inhibition) at 1uM” value was found to be 4.29%. Consider `CC(C)CC1Nc2ncnc(N3CCCCC3)c2N(Cc2ccc(Br)cc2)C1=O.O=C(O)C(F)(F)F` (stereo not drawn), for which the “hERG current change (%, negative = inhibition) at 1uM” value stood at 9.95%. On to `CCN1C(=O)/C(=C2/C=Cc3ccccc3N2C)OC1=S`, for which the “hERG current change (%, negative = inhibition) at 1uM” value stood at 12.2%. With `CCCCN(C)Cc1c(O)ccc2c(=O)c(-c3ccccc3OC)coc12`, the “hERG current change (%, negative = inhibition) at 1uM” value is given as 12.3%.

For `Brc1cnc2nc(SCc3nc4ccccc4[nH]3)[nH]c2c1`, the “hERG current change (%, negative = inhibition) at 1uM” value was determined as 7.45%. For `NC(=O)c1ccc(NC(=O)CCCN2C(=O)NC3(CCCC3)C2=O)cc1`, the “hERG current change (%, negative = inhibition) at 1uM” value is recorded as -2.15%. `Cc1ccc(C(=O)N2CCN=C2SCc2ccc([N+](=O)[O-])cc2)cc1C`: the “hERG current change (%, negative = inhibition) at 1uM” value is listed as 4.48%. `Cc1ccc(-n2c(C)cn(C(=O)c3ccccc3)c2=S)cc1`: the “hERG current change (%, negative = inhibition) at 1uM” value was determined as 26.6%. Consider `O=C1c2ccccc2C(=O)N1CCCc1nc(-c2ccncc2)no1`, for which the “hERG current change (%, negative = inhibition) at 1uM” value was 9.92%. As for `Cc1cc(C)c(C)c(S(=O)(=O)N2CCNCC2)c1C`, the “hERG current change (%, negative = inhibition) at 1uM” value amounted to 12.2%. Take `O=C(COc1ncnc2ccc(Br)cc12)N1CCOCC1`: the “hERG current change (%, negative = inhibition) at 1uM” value is 4.11%. As for `CCCCn1c(O)c(N=NC(=O)Cn2c(C(F)(F)F)nc3ccccc32)c2ccccc21`, the “hERG current change (%, negative = inhibition) at 1uM” value is on record as 17.2%. As to `CS(=O)(=O)c1ccc(C(=O)Nc2cccc(-c3nc4ccccc4[nH]3)c2)cc1`, the “hERG current change (%, negative = inhibition) at 1uM” value was found to be 15.2%. Next, `O=C(Nc1ccccc1)C1=C[C@@H](c2ccc(Br)cc2)C[C@@H](OCc2ccc(CO)cc2)O1`: 14.7%. Take `C/C(CC(=O)Nc1ccc(C)cc1C)=N\NC(=O)C(C)C`: the “hERG current change (%, negative = inhibition) at 1uM” value worked out at 0.252%. As to `S=C(Nc1ccccc1Cl)NC1CCC(NC(=S)Nc2ccccc2Cl)CC1` (stereo not drawn), the “hERG current change (%, negative = inhibition) at 1uM” value is listed as 9.43%.

For the molecule `O=C(Cc1ccccc1[N+](=O)[O-])Nc1ccc(S(=O)(=O)N2CCCC2)cc1`, the “hERG current change (%, negative = inhibition) at 1uM” value was found to be 9.52%. For `C=CCc1ccc(OCCn2cncn2)c(OC)c1`, the “hERG current change (%, negative = inhibition) at 1uM” value was determined as 13.6%. For `O=C(NNS(=O)(=O)c1ccccc1)c1cccc(F)c1`, the “hERG current change (%, negative = inhibition) at 1uM” value amounted to 14.7%. The result for `CN(C)C=O.O=[N+]([O-])c1cccc(COc2ncnc3cc([N+](=O)[O-])ccc23)c1` reads 0.401%; that for `Cc1cc(CNC(=O)CC2C(=O)NCCN2CC(c2ccccc2)c2ccccc2)on1` (stereo not drawn), 12.4%. For `CN(C)C(CNc1ncnc2sccc12)c1ccccc1` (stereo not drawn), the “hERG current change (%, negative = inhibition) at 1uM” value was found to be 12.7%. As for `Nc1nc(-c2ccccc2)cn1N`, the “hERG current change (%, negative = inhibition) at 1uM” value came to 12.5%. Turning to `CCOc1ccc(-n2c(Cc3cc(=O)[nH]c(=O)[nH]3)nnc2SC(C)C(=O)OC)cc1` (stereo not drawn), the “hERG current change (%, negative = inhibition) at 1uM” value is reported as 7.63%. Next, `COc1cc(OC)cc(C(=O)N2CCN=C2SCc2cccnc2)c1`: -1.17%; `CCC(CC)C(=O)c1c[nH]c(C(=O)NCc2ccco2)c1`: -6.01%.

Take `COc1ccc(NC(=O)C2C3C=CC4(O3)C2C(=O)N(CCN2CCCCC2)C4C(=O)NC2CCCC(C)C2C)cc1` (stereo not drawn): the “hERG current change (%, negative = inhibition) at 1uM” value came out at 20%.
